# Literature values as cited in PMC9427252, “Study on the Absorption of Arsenic Species in Realgar Based on the Form and Valence” (Evidence-based Complementary and Alternative Medicine : eCAM, 2022).
# Conditions: cited from earlier work
compound,measurement,value
"O[As](O)O [AsIII, Arsenite]",pKa,9.2
